From PubChem BioAssay AID651820 (National Center for Advancing Translational Sciences (NCATS), 2012)
Among all 340,000 compounds or so, about 12,000 (3.5%) were called active. The shares of active, inactive and inconclusive entries below differ from those in the screen. The call rests on the fitted dose curve; in most records, active means well fitted inhibition curve with a large enough effect; inconclusive means small, poorly fitted or top-dose-only effect, or another doubt; inactive means no such curve, though single readings can be large or run the other way. Potencies of inconclusive entries are left out as doubtful fits.

Assay: qHTS Assay for Inhibitors of Hepatitis C Virus (HCV)
Details: Huh7.5.1 HCVcc-Cre (HCVcc is cell-culture hepatitis C virus) infection, luciferase reporter, 44 h; series mostly up to 41.8 µM
Procedure, shortened: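 Whole-lifecycle infectious HCVcc-Cre system; cells 1,000/well, compound then virus (~0.5 moi) added 4 h after plating, 44 h culture. Luciferase read 15 sec following 15 min substrate incubation, room temp.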
Potency means the concentration at half of the fitted maximal effect; tags describe the fitted curve by direction and shape.

| Compound | Potency |
| --- | --- |
| S=C(Nc1ccc(Br)cc1)NC1CCN(Cc2ccccc2)CC1 | inconclusive [inhibitor, single point] |
| Cc1ccc(NC(=O)C(=O)NCc2ccco2)c(C)c1 | inconclusive [inhibitor, partial curve] |
| CN(Cc1ccccc1)c1nc(N)c([N+](=O)[O-])c(Nc2cccc(F)c2)n1 | active: 11.2 µM |
| CCCc1ccc2oc(C(=O)N(Cc3nccn3C)C(C)C)c(C)c2c1 | inconclusive [inhibitor, single point] |
| COc1ccc(C(=O)N(C)C2CCCN(Cc3ccccc3F)C2)cc1C (stereo not given) | inconclusive [inhibitor, single point] |
| COc1ccc(N(CC(=O)Nc2ccccc2OC)S(=O)(=O)c2ccc(NC(C)=O)cc2)cc1 | inconclusive [inhibitor, full curve] |
| CCOC(=O)c1c(NC(=O)c2ccccc2)sc2c(O)c(CN(CC)CC)ccc12 | inconclusive [inhibitor, single point] |
| O=C1NC(=NCc2ccccc2)S/C1=C/c1ccc(O)cc1 | inconclusive [inhibitor, partial curve] |
| CCCCN(CC)C(=O)c1oc2ccc(S(=O)(=O)N3CCCC3)cc2c1C | inconclusive [inhibitor, single point] |
| O=C(CSc1cn(CCNC(=O)c2cccs2)c2ccccc12)NCc1ccccc1 | active: 11.2 µM |
| Cc1cc(C)cc(NC(=O)c2ccc(NC(=O)c3ccco3)cc2)c1 | inconclusive [inhibitor, partial curve] |
| Cc1cc(-c2ccco2)n2c(nc3ccccc32)c1C#N | inconclusive [inhibitor, partial curve] |
| CN(CC(=O)Nc1ccc2c(c1)OCCO2)S(=O)(=O)c1ccc(F)cc1 | inactive |
| CC(C)CCNC(=O)c1c(N)n(CC2CCCO2)c2nc3ccccc3nc12 (stereo not given) | inconclusive [inhibitor, partial curve] |
| CC(C)(C)CC(=O)Nc1cccc2c1CCCC2 | inactive |
| c1ccc2[nH]c(-c3ccnc4ccccc34)nc2c1 | inactive |
| CC(CC(=O)OCC(=O)NCc1ccc(Cl)cc1)c1ccccc1 (stereo not given) | inconclusive [inhibitor, single point] |
| CC(C)Oc1ccc(C(=O)N2CCCC2C(=O)O)cc1 (stereo not given) | inactive |
| O=C(NCC(c1ccco1)N1CCCC1)c1ccc(Cl)c(S(=O)(=O)N2CCc3ccccc32)c1 (stereo not given) | active: 4.47 µM |
| COc1ccc(S(=O)(=O)Nc2cc3c4c(c2)CCN4C(=O)CC3)cc1OC | inconclusive [inhibitor, partial curve] |
